In the supplement of paper PMC10681739 one finds ETS1 binding intensity data, which are given here for 62 sequences.

In all, about 2,700 sequences were measured (“arbitrary fluorescence units”: median about 4,100, highest 2% from about 54,000 on). This is one part of the list.

The target of the assay is T1, ETS1 (UniProt P14921).
T1 sequence: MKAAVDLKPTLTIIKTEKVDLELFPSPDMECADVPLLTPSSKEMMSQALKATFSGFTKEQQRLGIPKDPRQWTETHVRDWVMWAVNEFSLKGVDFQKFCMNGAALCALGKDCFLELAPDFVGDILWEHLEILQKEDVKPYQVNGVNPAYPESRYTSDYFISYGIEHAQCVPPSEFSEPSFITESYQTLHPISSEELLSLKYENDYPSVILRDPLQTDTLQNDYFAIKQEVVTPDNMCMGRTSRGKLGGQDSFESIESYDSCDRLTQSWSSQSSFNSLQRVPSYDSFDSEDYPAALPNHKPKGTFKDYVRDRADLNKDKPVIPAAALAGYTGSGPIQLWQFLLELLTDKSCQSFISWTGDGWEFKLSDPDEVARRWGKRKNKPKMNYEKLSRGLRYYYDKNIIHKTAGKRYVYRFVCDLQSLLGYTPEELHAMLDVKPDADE
Kind of assay: ETS1 binding intensity (PBM fluorescence) (arbitrary fluorescence units); higher = stronger binding. To be noted: ETS1 concentration 10 nM. The method, then:
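gcPBM on wild-type 36-bp genomic probes with two neighbouring ETS1 sites (4-24 bp apart). Recombinant human ETS1 (10 nM) was detected with anti-ETS1 antibody fluorescence. Values are medians over 3 replicate spots. The probes sit in constant array flanks that are not printed.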
As for ACCCACTTCCCTCCTGTCCCTACCACATCCTTAACT, the ETS1 binding intensity was 5350.

CGAGACAGGCTCATCCGGCGCGGATGAGACAGGCTC gave an ETS1 binding intensity of 4090.

TCCACTTCCGTCTCCAGCTCGCTCTCCAGGATGTGG had an ETS1 binding intensity of 31600.

Sequence CCCACTGCAGGAAAAAACAAGGACTTCCGCCTCCCT had an ETS1 binding intensity of 2050.

On to GAGACTTCCTGCCACCCTCAGGCCGAACTTCCTGCT, for which the ETS1 binding intensity was found to be 41500.

GCTCAGCCCAGGAAACCATTATTTCCTCCTAGGCCT came in with an ETS1 binding intensity of 845.

TCTGGGAGGAAGCGCAGGAGACCTGGTTCCTGTTTC had an ETS1 binding intensity of 413.

GTCACCTTCCTGAGGGAGGGAGTGGCAGGAAACCCC showed an ETS1 binding intensity of 1090.

On to AGAAACAGGAAGCTGCATTCAATGGTTTCCTGCCCA, for which the ETS1 binding intensity came out at 9800.

For GAGTGAGTGGGTTTCCTGTGCGGAAACACCTTGCTT, the ETS1 binding intensity is 8190.

Sequence TGAGGCGGTTTCCTCGGCGCCTTTTCCGGCAGCGGC had an ETS1 binding intensity of 1360.

The sequence CACCGCTTCCGCCAGGGGCTTCTGGCGGAAGCCCGC displayed an ETS1 binding intensity of 17200.

As to GGAACGGAAGCGCGCGGCCTCGAGGCCCTTCCGGTG, the ETS1 binding intensity came out at 5560.

GAGGTGGGGAGGAAGAGCTGCCGGAAGTAGGCGGTG had an ETS1 binding intensity of 5440.

On to CCGGAGCGGAAGTGGCGATCGGAGCGGAAGTGGAGC, for which the ETS1 binding intensity worked out at 23200.

The sequence TAGCCCAGCAGGATGTGGTGGTAGGATGTGGTTAGG gave an ETS1 binding intensity of 2120.

In turn, TGCAGTCCGTCTTCCTGCTTCATCCGGTGGCCAGGC registered an ETS1 binding intensity of 7210.

AAATGGCCACGCCGGAACCGGAACTACCTCCGAGTC showed an ETS1 binding intensity of 1460.

GTCCACCCCGGAAACTCAAGGGAGGAAACTGACTGC returned an ETS1 binding intensity of 2570.

In the case of AGGCTGCTTCCTTGTCTTTGCCAGCTTCCTCCTGTC, the ETS1 binding intensity came to 2330.

GTTGCCGGAAATTGTCGAAGATTACCGGAAGCTACC registered an ETS1 binding intensity of 22300.

TCCTTCTCATCCTGGAAACGGAAGTTTATTTTGAAG: the ETS1 binding intensity was 2570.

For TGCACAGGAAATAAGCTACTCTTAAAGGAAATATGA, the ETS1 binding intensity stood at 8120.

Sequence CCCCGGTCCATTTCCGGGCTCCGGATATTTGGTATC had an ETS1 binding intensity of 29100.

Sequence TGTTACACAGGAAGTTGCATGGTTTCCTGACTTCTA yielded an ETS1 binding intensity of 15200.

In turn, GCCCGTAAGCCGGAAGGCGGCTTCCGGGAGCGCGTG returned an ETS1 binding intensity of 11500.

Sequence AGGGCGGAAAGGCAGTTGCTCTGCAAAGGAAACGGC registered an ETS1 binding intensity of 200.

In the case of TTAGCTTTACGGAAATTTGAAGAGGAAGTCTTTTTT, the ETS1 binding intensity amounted to 332.

For the sequence CCAGCTTCCTTAGCAACCACCTGGCCTCTTCCTGGG, the ETS1 binding intensity was determined as 3030.

Turning to CCTTTACCTTCCTGACTTGTCGCTTTTCCTGGCTCG, the ETS1 binding intensity came to 1060.

For the sequence GAGATAAAAGAGAGGAAGTTTCCTGCTTGCGGCCTA, the ETS1 binding intensity turned out to be 2470.

In the case of ATCTCATGAGGTTTCCTGTACTTCCTGCCACTGCTG, the ETS1 binding intensity was 7820.

CACGGGGGCGGATGCAGAGGACCAGGAAGTTCGCCG came in with an ETS1 binding intensity of 2020.

The sequence CCCAGGAAGTTAGGCATTCTTAGTCACAGGATGAGA had an ETS1 binding intensity of 2070.

As to CCTGCTTGAGCTTCCTGCCTTTTCCTGAGCTTCTGA, the ETS1 binding intensity turned out to be 12800.

For the sequence ATGTCAGAAACAGGATGTAGCTTCCTCTGTGTCAGG, the ETS1 binding intensity came to 9620.

For the sequence GTGGGGCCTCGGCTTCCGCAGGAAGTGGTCTTGGTG, the ETS1 binding intensity stood at 4020.

As to CAGAACCACTTCCTCTCATGACAGGAAACCAATGAA, the ETS1 binding intensity came out at 18600.

In the case of GAGCAGATAGAGGAAGTGGCAGGATCTCTCCTTTCT, the ETS1 binding intensity was determined as 3470.

The sequence GGTCCGGAAGGGAGGAGAACACAAGCAGGATATAAC registered an ETS1 binding intensity of 860.

In the case of AGGGCAGGAAGGAGGCACCCAATTTGTTTCCTGTGA, the ETS1 binding intensity is 1940.

As to GCTCCCGGCGGAAGCGGCTGCACTTCCGGTCCCCGC, the ETS1 binding intensity was 38000.

In turn, ATGCTGGGATGTTTGGGTAACACCCACTTCCTCTCC came in with an ETS1 binding intensity of 320.

Sequence ATCACCAGCCTTCCTGTGGGACCGGAAAGGCAGTAG came in with an ETS1 binding intensity of 2720.

The sequence CCTCTTACTTTTCCTGTCAGTGAGGAAGCTGTTTAC showed an ETS1 binding intensity of 4410.

TGGAATCAATCTTCCTGCTGCAGGAAAGAGCCAGGC showed an ETS1 binding intensity of 1120.

In turn, TCATCTCATCCTGTTTCTGCAACCAAGGAAGTCATC yielded an ETS1 binding intensity of 4460.

With CACTGGGCTTCCTCTCCGCAGAGGCGGAACACGGCG, the ETS1 binding intensity turned out to be 2580.

Turning to TACTGAAGGGAAGTGACGACACAGCGGAAAGCCAAC, the ETS1 binding intensity amounted to 314.

Sequence AGCAAGTCACTTCCTGTGTCAGTTTCCTGTGGCTGC showed an ETS1 binding intensity of 45800.

For the sequence AGGCAGACGTGCATCCGGGCGGATGATTAGCCGGTG, the ETS1 binding intensity worked out at 6340.

On to GTTACTTCCTCTCCCCAGGTCTCTCGGTTTCCTCAT, for which the ETS1 binding intensity is 23600.

GGCCATTTCCGTTTTCTCTGAGTAACAGGAAATAAA displayed an ETS1 binding intensity of 52900.

Sequence TATCCCATTTCCTGGCCCTGCAGCATCCTGGTGGGG had an ETS1 binding intensity of 16000.

As to TTTGTTGACAGGAAAGCCGGGCTTCCTGTGAGGCCA, the ETS1 binding intensity was determined as 2310.

As for GCAGAGGAAGTAGCTTACGCAAAGGCAGGAAGCATG, the ETS1 binding intensity stood at 2500.

AACACGGATACTCTCTCTCTGACGCAACTTCCTGTC came in with an ETS1 binding intensity of 2500.

CTGCAGCAGAAACGGAACAGGAAGCAGCCTCTGGGG returned an ETS1 binding intensity of 1510.

Consider GGGCCTAGGAAATGCCGCACTACAACTTCCGTCGGG, for which the ETS1 binding intensity amounted to 992.

CGCCCCTGGGGCTTCCGCGGCGGAAGCCTAGCGTCC returned an ETS1 binding intensity of 824.

Sequence GCCCTGCACCGGAAGGGAGGGCGGAAGCCACGGGAC showed an ETS1 binding intensity of 9950.

The sequence TGAATGATTCACTTCCTTTCTTCCTGTGATAGTTAA returned an ETS1 binding intensity of 12200.
